# Measurements reported in the supplement of paper PMC8728848.
# The other results are listed elsewhere or left out.
# B1: MpL2 (Macrolepiota procera) (protein)
# chain: MSTQVSSGQTYKITNVKAGTVIDLSGEDNKSIIGYPYHSGKNQQWTFNWTGKAWTLRSASSGSYLGIEGTPADGTRLVAVNDPFEWHIWRDEANENAFRIFVPFTNYNLRLSGYGDTTPGTPVQLWWTWEGLHQTWTIDRP
# What was measured:
# Experiment in all cases: glycan array binding signal (z-score within array); higher = stronger binding
# Details in all cases: glycan notation: IUPAC condensed, linker removed; mutation: D109R
# [1] = biological target: Fuc(a1-2)Gal(b1-4)GlcNAc(b1-3)Gal(b1-4)GlcNAc(b1-2)Man(a1-3)[Fuc(a1-2)Gal(b1-4)GlcNAc(b1-3)Gal(b1-4)GlcNAc(b1-2)Man(a1-6)]Man(b1-4)GlcNAc(b1-4)GlcNAc
# Procedure, shortened: (§1)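 Glycan array data were curated from 3228 arrays in the Consortium for Functional Glycomics database and kept only where the protein sequence was available. Glycan names were converted to IUPAC-condensed notation, and columns mapping to the same glycan were averaged. The binding signal is a within-array Z-score, averaged across arrays of the same protein sequence at different concentrations or buffers and across linkers. Negative Z-scores can be read as non-binding.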
# [2] = biological target: Fuc(a1-2)Gal(b1-4)GlcNAc(b1-3)Gal(b1-4)GlcNAc(b1-3)Gal(b1-4)GlcNAc
# Procedure, shortened: as §1
# [3] = biological target: Fuc(a1-2)Gal(b1-4)GlcNAc(b1-3)GalNAc
# Procedure, shortened: as §1
# [4] = biological target: Fuc(a1-2)Gal(b1-4)GlcNAc(b1-3)[Fuc(a1-2)Gal(b1-4)GlcNAc(b1-6)]GalNAc
# Procedure, shortened: as §1
# [5] = biological target: Fuc(a1-2)Gal(b1-4)GlcNAc(b1-3)[Fuc(a1-3)[Gal(b1-4)]GlcNAc(b1-6)]Gal(b1-4)Glc
# Procedure, shortened: as §1
# [6] = biological target: Fuc(a1-2)Gal(b1-4)GlcNAc(b1-6)GalNAc
# Procedure, shortened: as §1
# [7] = biological target: Fuc(a1-2)Gal(b1-4)GlcNAc6S
# Procedure, shortened: as §1
# [8] = biological target: Fuc(a1-2)Gal(b1-4)[Fuc(a1-3)]GlcNAc
# Procedure, shortened: as §1
# [9] = biological target: Fuc(a1-2)Gal(b1-4)[Fuc(a1-3)]GlcNAc(b1-2)Man(a1-3)[Fuc(a1-2)Gal(b1-4)[Fuc(a1-3)]GlcNAc(b1-2)Man(a1-6)]Man(b1-4)GlcNAc(b1-4)[Fuc(a1-6)]GlcNAc
# Procedure, shortened: as §1
# [10] = biological target: Fuc(a1-2)Gal(b1-4)[Fuc(a1-3)]GlcNAc(b1-2)[Fuc(a1-2)Gal(b1-4)[Fuc(a1-3)]GlcNAc(b1-4)]Man(a1-3)[Fuc(a1-2)Gal(b1-4)[Fuc(a1-3)]GlcNAc(b1-2)Man(a1-6)]Man(b1-4)GlcNAc(b1-4)GlcNAc
# Procedure, shortened: as §1
# [11] = biological target: Fuc(a1-2)Gal(b1-4)[Fuc(a1-3)]GlcNAc(b1-3)Gal(b1-4)[Fuc(a1-3)]GlcNAc
# Procedure, shortened: as §1
# [12] = biological target: Fuc(a1-2)Gal(b1-4)[Fuc(a1-3)]GlcNAc(b1-3)Gal(b1-4)[Fuc(a1-3)]GlcNAc(b1-3)Gal(b1-4)[Fuc(a1-3)]GlcNAc
# Procedure, shortened: as §1
# [13] = biological target: Fuc(a1-2)Gal(b1-4)[Fuc(a1-3)]GlcNAc(b1-3)GalNAc
# Procedure, shortened: as §1
# [14] = biological target: Fuc(a1-2)Gal(b1-4)[Fuc(a1-3)]GlcNAc(b1-3)[Neu5Ac(a2-6)Gal(b1-4)GlcNAc(b1-6)]Gal(b1-4)Glc
# Procedure, shortened: as §1
# [15] = biological target: Fuc(a1-2)Gal3S(b1-4)GlcNAc
# Procedure, shortened: as §1
# [16] = biological target: Fuc(a1-2)Gal6S(b1-3)GlcNAc
# Procedure, shortened: as §1
# [17] = biological target: Fuc(a1-2)Gal6S(b1-3)GlcNAc6S
# Procedure, shortened: as §1
# Fuc(a1-2)Gal6S(b1-4)Glc = biological target: Fuc(a1-2)Gal6S(b1-4)Glc
# Procedure, shortened: as §1
# [18] = biological target: Fuc(a1-2)Gal6S(b1-4)Glc6S
# Procedure, shortened: as §1
# Fuc(a1-2)[Gal(a1-3)]Gal = biological target: Fuc(a1-2)[Gal(a1-3)]Gal
# Procedure, shortened: as §1
# [19] = biological target: Fuc(a1-2)[Gal(a1-3)]Gal(b1-3)GalNAc
# Procedure, shortened: as §1
# [20] = biological target: Fuc(a1-2)[Gal(a1-3)]Gal(b1-3)GalNAc(b1-3)Gal(a1-4)Gal(b1-4)Glc
# Procedure, shortened: as §1
# [21] = biological target: Fuc(a1-2)[Gal(a1-3)]Gal(b1-3)GlcNAc
# Procedure, shortened: as §1
# [22] = biological target: Fuc(a1-2)[Gal(a1-3)]Gal(b1-3)GlcNAc(b1-2)Man(a1-3)[Fuc(a1-2)[Gal(a1-3)]Gal(b1-3)GlcNAc(b1-2)Man(a1-6)]Man(b1-4)GlcNAc(b1-4)GlcNAc
# Procedure, shortened: as §1
# [23] = biological target: Fuc(a1-2)[Gal(a1-3)]Gal(b1-3)GlcNAc(b1-2)Man(a1-3)[Fuc(a1-2)[Gal(a1-3)]Gal(b1-3)GlcNAc(b1-2)Man(a1-6)]Man(b1-4)GlcNAc(b1-4)[Fuc(a1-6)]GlcNAc
# Procedure, shortened: as §1
# [24] = biological target: Fuc(a1-2)[Gal(a1-3)]Gal(b1-3)GlcNAc(b1-3)GalNAc
# Procedure, shortened: as §1
# [25] = biological target: Fuc(a1-2)[Gal(a1-3)]Gal(b1-3)GlcNAc(b1-6)GalNAc
# Procedure, shortened: as §1
# [26] = biological target: Fuc(a1-2)[Gal(a1-3)]Gal(b1-4)Glc
# Procedure, shortened: as §1
# [27] = biological target: Fuc(a1-2)[Gal(a1-3)]Gal(b1-4)GlcNAc
# Procedure, shortened: as §1
# [28] = biological target: Fuc(a1-2)[Gal(a1-3)]Gal(b1-4)GlcNAc(b1-2)Man
# Procedure, shortened: as §1
# [29] = biological target: Fuc(a1-2)[Gal(a1-3)]Gal(b1-4)GlcNAc(b1-2)Man(a1-3)[Fuc(a1-2)[Gal(a1-3)]Gal(b1-4)GlcNAc(b1-2)Man(a1-6)]Man(b1-4)GlcNAc(b1-4)GlcNAc
# Procedure, shortened: as §1
# [30] = biological target: Fuc(a1-2)[Gal(a1-3)]Gal(b1-4)GlcNAc(b1-2)Man(a1-3)[Fuc(a1-2)[Gal(a1-3)]Gal(b1-4)GlcNAc(b1-2)Man(a1-6)]Man(b1-4)GlcNAc(b1-4)[Fuc(a1-6)]GlcNAc
# Procedure, shortened: as §1
# [31] = biological target: Fuc(a1-2)[Gal(a1-3)]Gal(b1-4)GlcNAc(b1-3)GalNAc
# Procedure, shortened: as §1
# [32] = biological target: Fuc(a1-2)[Gal(a1-3)]Gal(b1-4)GlcNAc(b1-3)[Fuc(a1-2)[Gal(a1-3)]Gal(b1-4)GlcNAc(b1-6)]GalNAc
# Procedure, shortened: as §1
# [33] = biological target: Fuc(a1-2)[Gal(a1-3)]Gal(b1-4)GlcNAc(b1-6)GalNAc
# Procedure, shortened: as §1
# [34] = biological target: Fuc(a1-2)[Gal(a1-3)]Gal(b1-4)[Fuc(a1-3)]Glc
# Procedure, shortened: as §1
# [35] = biological target: Fuc(a1-2)[Gal(a1-3)]Gal(b1-4)[Fuc(a1-3)]GlcNAc
# Procedure, shortened: as §1
# [36] = biological target: Fuc(a1-2)[Gal(a1-3)]Gal(b1-4)[Fuc(a1-3)]GlcNAc(b1-3)GalNAc
# Procedure, shortened: as §1
# [37] = biological target: Fuc(a1-2)[Gal(a1-4)]Gal(b1-4)GlcNAc
# Procedure, shortened: as §1
# [38] = biological target: Fuc(a1-2)[GalNAc(a1-3)]Gal
# Procedure, shortened: as §1
# [39] = biological target: Fuc(a1-2)[GalNAc(a1-3)]Gal(b1-3)GalNAc(a1-3)[Fuc(a1-2)]Gal(b1-4)GlcNAc
# Procedure, shortened: as §1
# [40] = biological target: Fuc(a1-2)[GalNAc(a1-3)]Gal(b1-3)GalNAc(b1-3)Gal(a1-4)Gal(b1-4)Glc
# Procedure, shortened: as §1
# [41] = biological target: Fuc(a1-2)[GalNAc(a1-3)]Gal(b1-3)GlcNAc
# Procedure, shortened: as §1
# [42] = biological target: Fuc(a1-2)[GalNAc(a1-3)]Gal(b1-3)GlcNAc(b1-2)Man(a1-3)[Fuc(a1-2)[GalNAc(a1-3)]Gal(b1-3)GlcNAc(b1-2)Man(a1-6)]Man(b1-4)GlcNAc(b1-4)GlcNAc
# Procedure, shortened: as §1
# [43] = biological target: Fuc(a1-2)[GalNAc(a1-3)]Gal(b1-3)GlcNAc(b1-2)Man(a1-3)[Fuc(a1-2)[GalNAc(a1-3)]Gal(b1-3)GlcNAc(b1-2)Man(a1-6)]Man(b1-4)GlcNAc(b1-4)[Fuc(a1-6)]GlcNAc
# Procedure, shortened: as §1
binder,measurement,setting,value
B1,glycan array binding signal (z-score),[1],-0.203
same,glycan array binding signal (z-score),[2],-0.264
same,glycan array binding signal (z-score),[3],-0.258
same,glycan array binding signal (z-score),[4],-0.236
same,glycan array binding signal (z-score),[5],-0.237
same,glycan array binding signal (z-score),[6],-0.267
same,glycan array binding signal (z-score),[7],-0.256
same,glycan array binding signal (z-score),[8],-0.265
same,glycan array binding signal (z-score),[9],-0.219
same,glycan array binding signal (z-score),[10],-0.188
same,glycan array binding signal (z-score),[11],-0.264
same,glycan array binding signal (z-score),[12],-0.278
same,glycan array binding signal (z-score),[13],-0.135
same,glycan array binding signal (z-score),[14],-0.271
same,glycan array binding signal (z-score),[15],-0.267
same,glycan array binding signal (z-score),[16],-0.257
same,glycan array binding signal (z-score),[17],-0.247
same,glycan array binding signal (z-score),Fuc(a1-2)Gal6S(b1-4)Glc,-0.253
same,glycan array binding signal (z-score),[18],-0.259
same,glycan array binding signal (z-score),Fuc(a1-2)[Gal(a1-3)]Gal,-0.274
same,glycan array binding signal (z-score),[19],-0.252
same,glycan array binding signal (z-score),[20],-0.24
same,glycan array binding signal (z-score),[21],-0.247
same,glycan array binding signal (z-score),[22],-0.252
same,glycan array binding signal (z-score),[23],-0.218
same,glycan array binding signal (z-score),[24],-0.266
same,glycan array binding signal (z-score),[25],-0.255
same,glycan array binding signal (z-score),[26],-0.222
same,glycan array binding signal (z-score),[27],-0.25
same,glycan array binding signal (z-score),[28],-0.266
same,glycan array binding signal (z-score),[29],-0.244
same,glycan array binding signal (z-score),[30],-0.28
same,glycan array binding signal (z-score),[31],-0.251
same,glycan array binding signal (z-score),[32],-0.254
same,glycan array binding signal (z-score),[33],-0.264
same,glycan array binding signal (z-score),[34],-0.245
same,glycan array binding signal (z-score),[35],-0.227
same,glycan array binding signal (z-score),[36],-0.213
same,glycan array binding signal (z-score),[37],-0.215
same,glycan array binding signal (z-score),[38],-0.253
same,glycan array binding signal (z-score),[39],-0.26
same,glycan array binding signal (z-score),[40],-0.28
same,glycan array binding signal (z-score),[41],-0.242
same,glycan array binding signal (z-score),[42],-0.274
same,glycan array binding signal (z-score),[43],-0.228
